Results published in PubChem BioAssay AID687022 (Broad Institute, 2013).
About 360 (36%) of roughly 1,000 compounds were called active.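 How the source made its calls: active means Fitted curve of melting temperature shift crosses the 1.0 threshold at or below the sample's highest valid tested concentration; inconclusive means Flat fit with activity 30 to 70, or invalid fit; inactive means Opposite direction, flat within 30, or no crossing.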 This part holds few or none of the hits.

Target: Fibroblast growth factor 22 (Homo sapiens) (UniProt Q9HCT0)
Test: FGF22 ligand-induced thermal stabilization – biophysical, thermal shift, cherry-pick, FGF22 synaptogenesis inhibitor project, dose response (AID 687022); further: reference of the scale not given here
Settings: recombinant FGF22 thermal shift, SYPRO orange melting; at 38 µM (top of the series) unless noted

Sequence of UniProt Q9HCT0 (Q9HCT0 whole entry, looked up): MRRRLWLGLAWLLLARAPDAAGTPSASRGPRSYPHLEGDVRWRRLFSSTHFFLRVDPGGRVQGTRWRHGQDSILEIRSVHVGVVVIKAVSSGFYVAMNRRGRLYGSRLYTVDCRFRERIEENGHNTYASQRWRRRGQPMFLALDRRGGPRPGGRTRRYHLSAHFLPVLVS

| SMILES | Tm shift activity |
| --- | --- |
| COc1ccc(Br)cc1S(=O)(=O)Nc1ncccc1C | inactive: -0.096% |
| CCC(=O)N1CC2(CCN(Cc3nccs3)CC2)c2c(n(C)c3cc(OC)ccc23)[C@@H]1CO | inactive: -0.152% |
| C[C@@H]1CN([C@@H](C)CO)C(=O)c2cccc(NS(=O)(=O)c3cn(C)cn3)c2O[C@@H]1CN(C)S(=O)(=O)c1ccc(Cl)cc1 | inactive: 0.326% |
| O=C(NN1C(=O)C2C3C=CC(O3)C2C1=O)c1ccccc1 (centres undefined) | inactive: -0.131% |
| CO[C@@H]1CN(C)C(=O)c2cc(NC(=O)C3CCCC3)ccc2OC[C@H](C)N(CCC(F)(F)F)C[C@H]1C | inactive: -0.068% |
| CCOC(=O)[C@]12CCCC=C1N(Cc1ccccc1)C(=O)[C@H](CC(=O)NCC1CCCCC1)C2 | inactive: 0.402% |
| O=C(C[C@@H]1CC[C@@H]2[C@H](COC[C@@H](O)CN2C(=O)Nc2cccc(Cl)c2)O1)NCC1CCCCC1 | inactive: 0.183% |
| CCCN(C)C[C@H]1Oc2cc(C#Cc3cccnc3)ccc2S(=O)(=O)N([C@H](C)CO)C[C@@H]1C | inactive: 0.518% |
| CCNC(=O)C1(C)CCCN(C(=O)C2(c3ccc(Cl)cc3)CCCC2)C1 (centres undefined) | inactive: -0.084% |
| C[C@@H]1CN([C@H](C)CO)S(=O)(=O)c2ccc(C#CCN(C)C)cc2O[C@@H]1CN(C)Cc1ccccc1F | inactive: 0.118% |
| COc1cccc(NC(=O)OCCN2CCN(Cc3ccccc3)CCC2=O)c1 | inactive: 0.08% |
| Cc1ccc(S(=O)(=O)c2nnn(-c3cccc(F)c3)c2N)cc1 | inactive: 0.058% |
| C[C@H]1CCCCO[C@H](CN(C)Cc2ccncc2)[C@@H](C)CN([C@@H](C)CO)C(=O)c2cc(NC(=O)c3ccncc3)ccc2O1 | inactive: 0.186% |
| O=C(CCc1ccc(S(=O)(=O)N2CCOCC2)cc1)Nc1ccccc1F | inactive: -0.061% |
| CNC[C@H]1Oc2ccc(NC(=O)C3CCCCC3)cc2C(=O)N([C@@H](C)CO)C[C@H]1C | inactive: -0.162% [at 42 µM] |
| CO[C@H]1CN(C)C(=O)c2cc(NC(=O)CC(F)(F)F)ccc2OC[C@@H](C)N(C(C)=O)C[C@H]1C | inactive: -0.187% [at 42 µM] |
| c1ccc(-c2cc3nc(NCc4ccc5c(c4)OCO5)ccn3n2)cc1 | inactive: -2.87% |
| COc1ccccc1NC(=O)N1[C@H](C#N)[C@H](c2ccccc2)[C@H]1CO | inactive: -0.014% [at 42 µM] |
| C[C@H]1CN([C@@H](C)CO)C(=O)c2cc(NC(=O)CCN3CCOCC3)ccc2O[C@H]1CN(C)C(=O)NC1CCCCC1 | inactive: 0.046% [at 42 µM] |
| O=C(OCC(=O)c1ccc(Cl)s1)c1ccc2ccccc2n1 | inactive: 0.073% |
| O=C(C1CCCC1)N1CC2(C1)[C@H](c1ccccc1)[C@@H](CO)N2CC1CC1 | inactive: -0.131% [at 42 µM] |
| Cc1nn(CCOc2ccccc2Cl)c(C)c1[N+](=O)[O-] | inactive: 0.301% |
| CCCCN(C(=O)c1ccc2c(c1)OCCO2)c1c(N)n(CCCC)c(=O)[nH]c1=O | inactive: 0.081% |

| SMILES | Tm shift activity |
| --- | --- |
| N#C[C@H]1[C@@H](c2ccc(C#CCC3CCCC3)cc2)[C@H](CO)N1C(=O)CN1CCOCC1 | inactive: -0.608% [at 42 µM] |
| O=C(N[C@@H]1C=C[C@H](CC(=O)N2CCCCC2)O[C@H]1CO)c1cccc(F)c1 | inactive: 0.229% |
| Cc1noc(C)c1S(=O)(=O)Nc1ccc2c(c1)CC(=O)N([C@@H](C)CO)C[C@@H](C)[C@@H](CN(C)Cc1ccc(Cl)c(Cl)c1)O2 | inactive: -1.12% [at 42 µM] |
| C[C@@H]1CN([C@@H](C)CO)S(=O)(=O)c2ccc(C3=CCCC3)cc2O[C@@H]1CN(C)C(=O)C1CCCCC1 | inactive: 0.63% |
| O=C(Cn1cc(COc2ccc(Br)cc2[N+](=O)[O-])nn1)c1ccc(O)cc1 | inactive: 0.225% |
| CN(c1ccccc1)S(=O)(=O)c1cccc(NC(=O)c2ccc3ncsc3c2)c1 | inactive: -0.176% |
| Cc1cccc(Cn2ncc(Cl)c(Cl)c2=O)c1 | inactive: -0.187% |
| C[C@H](CO)N1C[C@H](C)[C@H](CN(C)C)Oc2ccc(NC(=O)NC3CCCCC3)cc2CC1=O | inactive: -0.011% [at 42 µM] |
| O=C(NCC[C@H]1CC[C@@H](NC(=O)C2CCOCC2)[C@H](CO)O1)Nc1ccc(Cl)cc1 | inactive: 0.22% [at 42 µM] |
| COCC(=O)NC[C@H]1[C@H](c2ccc(C3=CCCC3)cc2)[C@@H](CO)N1C(C)=O | inactive: -0.131% [at 42 µM] |
| O=C(C1CCOCC1)N1CC2(C1)[C@@H](c1ccccc1)[C@@H](CO)N2Cc1ccccc1F | inactive: -0.177% |
| O=C(CCN1CCCCC1)N[C@@H]1CC[C@H](CCNS(=O)(=O)c2ccc(F)cc2)O[C@H]1CO | inactive: -0.166% |
| C=CCN(C(=O)c1csnn1)C(C(=O)NC1CCCCC1)c1ccc(Cl)cc1 (centres undefined) | inactive: -0.164% |
| CCCn1c(CCC(=O)O)nc2cc(S(=O)(=O)N3CCCC3)ccc21 | inactive: -0.298% |
| C[C@H](CO)N1C[C@H](C)[C@@H](CN(C)S(=O)(=O)c2ccccc2)Oc2c(NC(=O)C3CC3)cccc2C1=O | inactive: -0.058% |
| C[C@H]1CN([C@@H](C)CO)C(=O)Cc2cc(NC(=O)Cc3cn(C)c4ccccc34)ccc2O[C@@H]1CN(C)Cc1ccccc1 | inactive: 0.45% [at 42 µM] |
| COc1cccc(CNC(=O)C2(C)CCCCN2C)c1 (centres undefined) | inactive: -0.044% |
| CCN1CCc2c(sc(NC(=O)c3ccc(S(=O)(=O)N(CC)c4ccccc4)cc3)c2C(N)=O)C1 | inactive: -0.12% |
| Cc1nn(-c2ccccc2)c(Cl)c1/C=N/NC(=O)c1cccnc1 | inactive: -0.238% |
| CNC[C@H]1Oc2ccc(NC(=O)Nc3ccc(OC)cc3)cc2C(=O)N([C@H](C)CO)C[C@@H]1C | inactive: -0.083% [at 42 µM] |
| O=C(C[C@H]1C[C@@H]2c3cc(NC(=O)Nc4ccc(C(F)(F)F)cc4)ccc3O[C@@H]2[C@@H](CO)O1)NCC1CC1 | inactive: -0.161% [at 10 µM] |
| CCCCNC(=O)c1onc(CSc2ccc(C(C)C)cc2)c1C(=O)O | inactive: 0.765% [at 5 µM] |
| C=C(C1=CCN(S(=O)(=O)C(C)(C)C)[C@H]1CCO)c1ccccc1 | inactive: -0.093% |

| SMILES | Tm shift activity |
| --- | --- |
| Cc1nn(C)cc1NC(=O)C[C@H]1CC[C@@H]2[C@@H](COc3ccc(NC(=O)NC(C)C)cc3C(=O)N2C)O1 | inactive: -0.291% |
| CC(C)(C)NC(=O)CN(C(=O)CNS(=O)(=O)c1ccc(Cl)cc1)c1ccc2c(c1)OCCO2 | inactive: -0.101% |
| O=C(C[C@@H]1C=C[C@H](NC(=O)c2cccc(F)c2)[C@H](CO)O1)NCc1ccccc1 | inactive: -0.119% |
| COCC(=O)N1[C@H](CO)[C@H]2c3ccccc3NC[C@H]21 | inactive: -0.063% |
| CC(=O)Nc1cccc(C(=O)N2CCC(n3nccc3NC(=O)CC(C)C)CC2)c1 | inactive: 0.588% |
| O=C(c1ccccc1F)N1CC(=O)N2[C@H](C1)[C@H](c1ccc(-c3ccc(F)cc3)cc1)[C@@H]2CO | inactive: 0.218% [at 42 µM] |
| CC(=O)N1c2ccc(S(=O)(=O)N3CCC(C(=O)NCc4ccc(F)cc4)CC3)cc2CC1C (centres undefined) | inactive: -0.179% |
| O=C(OCC(=O)c1cccs1)c1cccc(C(=O)OCC(=O)c2cccs2)n1 | inactive: -0.182% |
| CO[C@H]1CN(C)C(=O)c2ccc(NS(=O)(=O)c3ccc(Cl)cc3)cc2OC[C@@H](C)N(C(=O)NC(C)C)C[C@H]1C | inactive: -0.141% [at 42 µM] |
| CNC[C@H]1Oc2ccc(NC(=O)Cc3cn(C)c4ccccc34)cc2C(=O)N([C@H](C)CO)C[C@H]1C | inactive: -0.055% [at 42 µM] |
| C[C@H](CO)N1C[C@H](C)[C@H](CN(C)S(=O)(=O)c2ccc(F)cc2)OCc2cnnn2CCCC1=O | inactive: 0.216% [at 42 µM] |
| O=C1C2C(C(=O)N1CCc1ccccc1)C1C=CC2C12CC2 (centres undefined) | inactive: -0.247% |
| COc1ccc2c3c([nH]c2c1)[C@H](CO)N(C(C)=O)CC31CN(C(=O)c2ccc3c(c2)OCO3)C1 | inactive: -0.297% |
| C[C@H]1CN([C@@H](C)CO)S(=O)(=O)c2ccc(C#Cc3ccccc3F)cc2O[C@H]1CN(C)C(=O)Cc1cccnc1 | inactive: 0.492% [at 42 µM] |
| CNC[C@@H]1Oc2c(NS(=O)(=O)c3ccc(OC)cc3)cccc2C(=O)N([C@@H](C)CO)C[C@@H]1C | inactive: -0.136% |
| O=C(C[C@@H]1CC[C@H](NC(=O)c2ccc3c(c2)OCO3)[C@H](CO)O1)NCc1ccc(Oc2ccccc2)cc1 | inactive: -0.218% [at 42 µM] |
| CC1(C(=O)NS(=O)(=O)c2cccc(Cl)c2)CCN1C(=O)Cc1ccc(-c2ccccc2)cc1 (centres undefined) | inactive: 0.77% [at 5 µM] |
| C[C@@H]1CN([C@@H](C)CO)C(=O)CCCn2nncc2CO[C@H]1CN(C)Cc1ccccc1C(=O)O | inactive: -0.141% [at 42 µM] |
| O=C(COc1ccccc1)NCC(=O)NC1CCCCC1 | inactive: 0.061% |
| O=C(CNc1ccccc1OC(F)F)N1CCc2ccccc21 | inactive: 0.054% |
| COc1cc(C(=O)NC(=S)Nc2ccccc2[N+](=O)[O-])cc(OC)c1OC | inactive: -0.198% [at 19.5 µM] |
| CCS(=O)(=O)N1CC(=O)N2[C@H](CO)[C@@H](c3ccc(-c4ccccc4F)cc3)[C@@H]2C1 | inactive: -0.064% |
| C[C@@H]1CN([C@H](C)CO)S(=O)(=O)c2ccc(-c3cncnc3)cc2O[C@@H]1CN(C)C(=O)CN(C)C | inactive: 0.231% |
